The results in this text go back to PubChem BioAssay AID1963576 (National Center for Advancing Translational Sciences (NCATS), 2024).

Out of some 46,000 compounds screened, about 60 (0.1%) were called active. About 3% were inconclusive and are not listed. The call rests on the fitted dose curve; in most records, active means well fitted inhibition curve with a large enough effect; inconclusive means small, poorly fitted or top-dose-only effect; inactive means no such curve, though single readings can be large or run the other way. The list shows a part of the results.

A short description of the assay: Primary qHTS assay for Inhibitors of ovarian cancer metastasis using an organotypic tumor microenvironment (TME) model. Further: nearly all actives have a fitted effect of over 65% in size.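 On activity change, negative = inhibition: plate controls were DMSO wells for no effect and tomatine positive control wells for full effect.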 To be noted: SKOV3ip1-GFP adhesion/invasion on 3D omental model, fluorescence; series mostly up to 45.8 µM; activity change, negative = inhibition: at the top concentration. The method in brief:
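Adhesion/invasion was scored as fixed GFP-labeled SKOV3ip1 cell counts (488/509 nm), normalized to DMSO and tomatine controls. Cancer cells in serum-free medium, with four compound doses (0.36-46 umol/L), sat 2 hr at RT then 16 hr at 37 C on a 48 hr fibroblast/mesothelial/ECM culture.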
In general terms: qHTS replaces the single test concentration by a dilution series.
As to `COc1ccc(NC(=O)C2CCCN(S(=O)(=O)c3ccc4c(c3)CCCC(=O)N4)C2)c(OC)c1` (configuration not stated), the “activity change, negative = inhibition” value is inactive: 5.24%.
Regarding `Cc1nn(S(=O)(=O)c2ccc(F)cc2)c(C)c1S(=O)(=O)N1CCC(C)CC1`, the compound was classed as inactive.
`CCc1ccc(N(CC)C(=O)Cn2c(=O)oc3ccccc32)cc1`: the “activity change, negative = inhibition” value was inactive: 2.14%.
Still for that read-out and setting: as for `Cc1nc2scc(C)n2c(=O)c1S(=O)(=O)Nc1ccc(N2CCOCC2)cc1`, the figure is inactive: 2.35%; as for `Cc1ccc(-n2ncc(C(=O)Nc3ccc4c(c3)OCO4)c2C2CCN(C(=O)OC(C)(C)C)CC2)cc1`, inactive: -0.0584%.
With `Cc1ccnc(NS(=O)(=O)c2cc(-c3cc(C)no3)ccc2C)c1`, the “activity change, negative = inhibition” value was inactive: -4.77%.
On to `CCN(C(=O)Cn1c(=O)oc2cc(Cl)ccc21)c1cccc(C(F)(F)F)c1`, for which the “activity change, negative = inhibition” value is inactive: 4.28%.
Still for that read-out and setting: then `Cc1ccc(CCNC(=O)C2CCN(c3nnc(-n4cccc4CNc4ccc(C)cc4)s3)CC2)cc1`, with inactive: -5.39%; and `Cc1ccc(-c2cnc(NCc3ccc(C(F)(F)F)cc3)n2C)cc1`, with inactive: 19.1%.
Same read-out and setting: as for `COc1ccc(/C=C/C(=O)Nc2nc3n(n2)C(c2ccccc2)C=C(c2ccccc2)N3)cc1` (configuration not stated), the figure is inactive: 6.74%; as for `CC(C)(C)NC(=O)c1cnn2c(C(F)F)cc(-c3ccccc3)nc12`, inactive: 21.4%.
Same read-out and setting: as for `O=C(CN1C(=O)CC(c2ccccc2)Sc2ccccc21)Nc1cccc(Cl)c1` (configuration not stated), the figure is inactive: -3.93%; as for `CCOCCn1ccc2c(OCC(=O)Nc3ccc(OC(F)(F)F)cc3)cccc2c1=O`, inactive: -6.68%; as for `CC(=O)c1cccc(NC(=O)CCS(=O)(=O)c2ccc(Br)s2)c1`, inactive: -2.33%.
With `CCOC(=O)c1cc2c(=O)n3ccccc3nc2n(CC(C)C)c1=NC(=O)c1cc2ccccc2o1`, the “activity change, negative = inhibition” value was inactive: -0.627%.
Still for that read-out and setting: as for `Cc1ccc(S(=O)(=O)c2cn(Cc3ccc(F)cc3)c3cc(F)c(F)cc3c2=O)cc1`, the figure is inactive: 6.27%.
Consider `O=C(NCc1ccccc1Cl)c1cnc2sc(N3CCCCC3)nn2c1=O`, for which the “activity change, negative = inhibition” value was inactive: 0.372%.
Regarding `Clc1ccccc1CNc1nc2ccccc2c2nc(-c3cccnc3)nn12`, the compound was called inactive.
Same read-out and setting: as for `COc1ccc(Cl)cc1NC(=O)c1c(NCc2sccc2C)sc2c1CCCC2`, the entry is “inactive”.
With `CN1C(=O)C2(c3ccccc31)N(c1cccc(F)c1)C(=O)CS2(=O)=O` (configuration not stated), the “activity change, negative = inhibition” value was inactive: 1.79%.
On the same count and under the same terms, as for `COCCCNC(=O)c1cc(-c2cccnc2)nc2ccc(S(=O)(=O)N3CCC(C)CC3)cc12`, the figure is inactive: -5.99%.
Same read-out and setting: as for `O=S(=O)(c1ccc(Br)cc1)c1nc(-c2cccs2)oc1SCc1ccccc1F`, the figure is inactive: -1.48%; as for `O=C(Cn1nnc(-c2ccc(Cl)cc2)n1)NCc1ccc(F)cc1`, inactive: -7.42%; as for `COc1ccc(OC)c(CNS(=O)(=O)c2c(C(=O)N3CCCCCC3)c(C)n(C)c2C)c1`, inactive: 2.07%.
Same read-out and setting: then `Cc1ccc(CNC(=O)Cn2cc(S(=O)(=O)Cc3ccccc3F)c3ccccc32)cc1`, with inactive: 1.97%; and `COc1ccc(Cl)cc1NC(=O)CSC1=Nc2ccccc2C2=NC(CC(=O)NCc3ccc4c(c3)OCO4)C(=O)N12` (configuration not stated), with inactive: 6.34%; and `Cc1ccc(NC(=O)c2cnc(SCC(=O)Nc3cc(C)on3)n(C)c2=O)cc1`, with inactive: -0.92%.
Regarding `COc1ccccc1N1CCN(C(=O)CCNS(=O)(=O)c2ccc3c(c2)CCN3C(=O)C2CC2)CC1`, the “activity change, negative = inhibition” value is inactive: 40.3%.
Still for that read-out and setting: then `CCc1ccccc1NC(=O)c1cnc2sc(N3CCOCC3)nn2c1=O`, with inactive: -4.47%; and `CCOC(=O)c1ccc(NC(=O)CC2C(=O)N(c3cccc(OC)c3)C(=O)N2Cc2ccc(OC)cc2)cc1` (configuration not stated), with inactive: 7.11%.
On the same count and under the same terms, then `COc1ccc(C(CC(=O)NCc2ccccc2)N2Cc3ccccc3C2=O)cc1` (configuration not stated), with inactive: -7.49%.
Take `CCC(Oc1ccc(F)cc1)C(=O)Nc1nc(-c2ccc(F)cc2)ns1` (configuration not stated): the “activity change, negative = inhibition” value is inactive: -9.59%.
Take `Cc1cc(C)n2nc(SCC(=O)Nc3cccc(C(F)(F)F)c3)nc2n1`: the compound was classed as inactive.
As to `CCn1c(=O)n(CC)c2cc(N3CCCCC3)c(NC(=O)Nc3ccccc3C(F)(F)F)cc21`, the “activity change, negative = inhibition” value was inactive: -12.9%.
Regarding `COc1ccccc1C(=O)Nc1ccc2c(c1)nc(CN1CCCCC1)n2C`, the “activity change, negative = inhibition” value was inactive: -2.82%.
Still for that read-out and setting: then `C=CCc1ccccc1OCC(O)CN1CCN(c2ccccc2)CC1` (configuration not stated), with inactive: -16.3%.
Turning to `COc1ccccc1Cc1nc2ccccc2nc1SCC(=O)Nc1cccc(Cl)c1C`, the compound was called inactive.
On the same count and under the same terms, then `COC(=O)c1ccc(NC(=O)CCc2c(C)nc3c(c2C)c(=O)n(C)c(=O)n3C)cc1`, with “inactive”.
For `Cc1ccc(-c2nc3ccc(Cl)cn3c2Nc2ccccc2C)s1`, the “activity change, negative = inhibition” value was inactive: -0.0792%.
Take `Cc1sc2c(c1C)c(=O)n(-c1cccc(C(F)(F)F)c1)c(=O)n2Cc1ccc(F)cc1`: the “activity change, negative = inhibition” value was inactive: -6.26%.
Regarding `CN(Cc1ccccc1)C(=O)CSc1nc2ccccc2n1Cc1ccccc1F`, the “activity change, negative = inhibition” value is inactive: 9.43%.
Regarding `Cc1ccccc1NC(=O)CSc1nc(=O)n(CCN2CCOCC2)c2c1CCC2`, the compound was classed as inactive.
Turning to `CC(C)c1cnc2c(c1SCC(=O)NCc1ccccc1)c(=O)n(C)c(=O)n2C`, the “activity change, negative = inhibition” value is inactive: -2.29%.
The same measure, in the same setting: then `COc1ccc(CNC(=O)c2cnc3cc(C)ccn3c2=O)cc1`, with inactive: 6.02%.
For the compound `COc1cc(NC(=O)CSC2=Nc3ccccc3N=C(c3ccc(F)cc3)C2)cc(OC)c1`, the call was inactive.
Turning to `CCCCN(CC)C(=O)Cn1nc(C)c2c(C)n(-c3ccccc3)nc2c1=O`, the “activity change, negative = inhibition” value is inactive: 17.7%.
For the compound `O=C(c1ccccc1)c1ccc2nc(Nc3ccccc3Cl)c3nncn3c2c1`, the “activity change, negative = inhibition” value is inactive: 2.35%.
For `CCOC(=O)c1c(C)oc2nc(C)nc(NCc3cccc(OC)c3)c12`, the “activity change, negative = inhibition” value is inactive: 5.93%.
With `CCOCN(C(=O)CSc1nc2ccccc2[nH]1)c1c(C)cccc1CC`, the “activity change, negative = inhibition” value is inactive: 15.3%.
Still for that read-out and setting: as for `CCn1c(=O)cc(SCC(=O)N2CCN(c3cc(C)ccc3C)CC2)c2ccccc21`, the figure is inactive: -2.82%; as for `COc1ccccc1NC(=O)CCNS(=O)(=O)c1ccc2c(c1)CCCC(=O)N2`, inactive: -8.44%.
`COc1ccccc1CNC(=O)CCCn1c(=O)c2ccccc2n(Cc2ccccc2F)c1=O`: the compound was classed as inactive.
`Cc1ccc(N2CC(C(=O)Nc3ccc(Cl)cc3Cl)CC2=O)cc1` (configuration not stated): the “activity change, negative = inhibition” value was inactive: 0.244%.
Same read-out and setting: as for `CCOC(=O)c1cc(OC(=O)c2ccc(OC)c(OC)c2)n(-c2ccccc2)n1`, the figure is inactive: 6.26%.
Still for that read-out and setting: as for `Cc1nn(C(C)C(=O)NCc2cccc(F)c2)c(=O)c2c1sc1ccccc12` (configuration not stated), the figure is inactive: 7.42%; as for `CCc1ccc(-c2csc(-c3cc4cc(Br)ccc4oc3=O)n2)cc1`, inactive: -6.64%.
Consider `COc1ccc(C(=O)Nc2nnc(S(=O)(=O)N3CCOCC3)s2)cc1`, for which the “activity change, negative = inhibition” value is inactive: 7.49%.
Still for that read-out and setting: as for `CCOc1ccccc1CNC(=O)c1cnc2sc(N3CCC(C)CC3)nn2c1=O`, the figure is inactive: 2.57%; as for `CN(Cc1cc(Br)cc(Br)c1N)C1CCCCC1`, inactive: -2.61%.
Still for that read-out and setting: then `O=C(CSc1nnc(-c2ccccc2)o1)N1CCCc2ccccc21`, with inactive: -3.87%; and `CCOC(=O)N1CCc2c(sc3c2c(=O)n(-c2ccc(Cl)cc2)c(=O)n3CC(=O)Nc2ccccc2)C1`, with inactive: 5.59%.
The same measure, in the same setting: as for `COc1ccc(C)cc1NC(=O)C(NS(=O)(=O)c1cccc2nsnc12)c1ccccc1` (configuration not stated), the figure is inactive: -6.66%.
